The source of these data is paper PMC7819943, “Rice protein-binding microarrays: a tool to detect cis-acting elements near promoter regions in rice”.

The other results are listed elsewhere or left out.

The target of the assay is T1, OsWOX13 (Oryza sativa, UniProt Q5QMM3 1-267).
T1 sequence: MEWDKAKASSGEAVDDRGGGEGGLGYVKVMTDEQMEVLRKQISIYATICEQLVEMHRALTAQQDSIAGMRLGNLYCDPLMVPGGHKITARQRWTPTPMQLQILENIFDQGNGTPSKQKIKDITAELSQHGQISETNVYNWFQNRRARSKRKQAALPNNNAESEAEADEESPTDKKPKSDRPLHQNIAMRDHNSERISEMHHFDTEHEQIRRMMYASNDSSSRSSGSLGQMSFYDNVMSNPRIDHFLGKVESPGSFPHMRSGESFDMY
Put plainly: protein-binding microarray (RPBM); PBS, 2% BSA, 51.3 ng/ul salmon testes DNA, 50 uM zinc acetate, 200 nM TF, 25 C, 1 h; high values mean tight binding. Particulars: protein: recombinant; tags: N-terminal polyhistidine and DsRed monomer fusion (pET32a); label: CyDye5-dUTP incorporated in the synthesized complementary strand; 3' TTTTT single-stranded linker to array surface; dsDNA, one strand shown. The essentials:
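For the binding signal, per-feature fluorescence intensity was read in arbitrary units on an Axon 4000B scanner. Before scanning, a 2% BSA-blocked custom Agilent array made double-stranded with Cy5-dUTP was washed after 1 h at 25 °C with 200 nM protein and 50 µM zinc acetate. The proteins were Ni–NTA-purified transcription factors with N-terminal polyhistidine and DsRed fusions, expressed in E. coli BL21-CodonPlus.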
In the case of “AACGTACAGTAGATTATTGATTAGCAACAGATTCTCACTGCGGAGTCACCTAGTGCAG”, the binding signal is 23200 fluorescence intensity (a.u.).
The figure for “GCAAAATTTTGCTTAGGTCTGATTGCAACACTTGCATCCTCGGAGTCACCTAGTGCAG” is 9330 fluorescence intensity (a.u.).
As for “AGTTAAATTTTAACTCATGGTGACGTGGACGAAACTCTGACGGAGTCACCTAGTGCAG”, the figure is 4740 fluorescence intensity (a.u.); as for “AGCTAATGAAGAAGTAACATCGCATCAATGGACATAACAACGGAGTCACCTAGTGCAG”, 3210 fluorescence intensity (a.u.); as for “GATGCAATTTACACCCTTGATGAATCATCCAAAGAATAAACGGAGTCACCTAGTGCAG”, 4700 fluorescence intensity (a.u.).
As for “TTTAATAAAATAATTTTATATTTTAGATGTTGCTAATATTCGGAGTCACCTAGTGCAG”, the binding signal is 4760 fluorescence intensity (a.u.).
Take “CATCATTTCAATTTCAACCAAATTTCTAATTTTAGCGTGACGGAGTCACCTAGTGCAG”: the binding signal was 5200 fluorescence intensity (a.u.).
On to “TTATTAATAGGTGTTGATCTAAAATATATCTTTTACATGCCGGAGTCACCTAGTGCAG”, for which the binding signal was 6100 fluorescence intensity (a.u.).
Take “CTTAATGACACAAATTTCCGTAGCCTGACAAAGTACACACCGGAGTCACCTAGTGCAG”: the binding signal was 11100 fluorescence intensity (a.u.).
In the case of “TCAAGATTGGTGCGATTGAGACCAAAAGCATGGTGTACATCGGAGTCACCTAGTGCAG”, the binding signal is 30300 fluorescence intensity (a.u.).
As to “GGTTAATTTATACTCATTTTACGATTAACGTTATAAATGACGGAGTCACCTAGTGCAG”, the binding signal was 30500 fluorescence intensity (a.u.).
The figure for “TATTTTGTTTGTGATTTGATTTATTATCAAAAGTAATTTACGGAGTCACCTAGTGCAG” is 7280 fluorescence intensity (a.u.).
Regarding “AATTTAACTGTAAATATACATATAGTAATTTGAGTTTTATCGGAGTCACCTAGTGCAG”, the binding signal is 4840 fluorescence intensity (a.u.).
As to “ATTTAAACAAGAATGTAAATTGTTTGACGAGAGACGACGACGGAGTCACCTAGTGCAG”, the binding signal was 10500 fluorescence intensity (a.u.).
The figure for “ATTAATTTGTTCTCGTCTTTATTATCTGGGTTGCCCTATACGGAGTCACCTAGTGCAG” is 26500 fluorescence intensity (a.u.).
As for “ATAAGATTGAAATAGTCTTTACCTGTCGCAACGCACGGATCGGAGTCACCTAGTGCAG”, the binding signal was 22000 fluorescence intensity (a.u.).
Turning to “AATAACCACCCAAATTAGATACGGACTAACAGCTGAGCAACGGAGTCACCTAGTGCAG”, the binding signal was 5970 fluorescence intensity (a.u.).
Regarding “GGATTGAAGATTGAAGACGGCAGTCAGCTAGCTATGCGAGCGGAGTCACCTAGTGCAG”, the binding signal is 15500 fluorescence intensity (a.u.).
As for “ACACAGACCAAGGATAATTGATTCTACTTATCATCTATTTCGGAGTCACCTAGTGCAG”, the figure is 12600 fluorescence intensity (a.u.); as for “TATTGATTAATATGTAAGTATGTGTAACAAATTAATTGTACGGAGTCACCTAGTGCAG”, 26400 fluorescence intensity (a.u.); as for “CCTTAATTGCATCGGTTAATCTGAATTTCTCCCTGTAATTCGGAGTCACCTAGTGCAG”, 32300 fluorescence intensity (a.u.).
As for “AACAATTTGATCAAGAGTTGACCGAGATAATCCCACTTGCCGGAGTCACCTAGTGCAG”, the figure is 4370 fluorescence intensity (a.u.); as for “ATGATTGAATCCTATAAAATCTTGTGAAATTCCTGTGAAACGGAGTCACCTAGTGCAG”, 52800 fluorescence intensity (a.u.); as for “AAATTAATTATACAAATGAACCGTGGCCAAAACTTATTTTCGGAGTCACCTAGTGCAG”, 4450 fluorescence intensity (a.u.).
As for “ACAAAATCAATCAGTTTCTTTCACGTAAACAAGCTCACAGCGGAGTCACCTAGTGCAG”, the figure is 32000 fluorescence intensity (a.u.); as for “CTCTGGATCTTGTTAATTAATTAATGAATGAATTCCGGTACGGAGTCACCTAGTGCAG”, 27100 fluorescence intensity (a.u.).
Take “GTTTCAGCAGTTTTCAATTATCTTGACATCATATATGAGTCGGAGTCACCTAGTGCAG”: the binding signal is 6260 fluorescence intensity (a.u.).
Regarding “CTATATTAATTAATGAATTAGCAATTGGATGTACCAATTTCGGAGTCACCTAGTGCAG”, the binding signal is 38900 fluorescence intensity (a.u.).
With “ATAAATCATAATCATGGAGGATATTTGTTATCCTCTAAAACGGAGTCACCTAGTGCAG”, the binding signal was 5470 fluorescence intensity (a.u.).
“AAGCCTAATCTAAATGGATTATTTCTTCCATTCCATGTACCGGAGTCACCTAGTGCAG”: the binding signal is 6240 fluorescence intensity (a.u.).
The figure for “ATAGTATATGATGGATGAGATGGATGCATAGATGGATTGGCGGAGTCACCTAGTGCAG” is 3330 fluorescence intensity (a.u.).
The figure for “GCTACCAAATTTTGTTAACTATATAATAAATCTTGCTAAACGGAGTCACCTAGTGCAG” is 4470 fluorescence intensity (a.u.); for “TGTTAGTAATAATTAATTATGATGGCAAGTGCATGGCATGCGGAGTCACCTAGTGCAG” it is 19300 fluorescence intensity (a.u.); for “CTCCTGAATGTGATTTGAGTGTTTTCTACAACATTTTAATCGGAGTCACCTAGTGCAG” it is 3780 fluorescence intensity (a.u.).
As for “TTAATTGAGCACCACGAGGGAACTAACCGAAAATATGTAGCGGAGTCACCTAGTGCAG”, the figure is 9040 fluorescence intensity (a.u.).
With “GATAATTTTGTTTGGGTGCTACTCGCGCAATTGCGCGGGCCGGAGTCACCTAGTGCAG”, the binding signal was 5800 fluorescence intensity (a.u.).
With “CATGATTTATTTGATAAGCTAGGGGCGCCACGTGGCCCAACGGAGTCACCTAGTGCAG”, the binding signal is 24000 fluorescence intensity (a.u.).
As for “ACACTAATTTGGAGTATTAAACATATACTAATTACAAAACCGGAGTCACCTAGTGCAG”, the figure is 26600 fluorescence intensity (a.u.); as for “TTAATTATTAGCTACAGTTGAGCTCGCTCGATTCGATCCCCGGAGTCACCTAGTGCAG”, 4530 fluorescence intensity (a.u.); as for “TTAGTAAATATTTACTTCAATTGATGAACTGTGCGCAAACCGGAGTCACCTAGTGCAG”, 4760 fluorescence intensity (a.u.).
For the sequence “TGGTTACAACTAATTTACTAATCATCATCTGGGATTAGCACGGAGTCACCTAGTGCAG”, the binding signal was 24900 fluorescence intensity (a.u.).
For the sequence “TTTTACTTTCAATAATTGCCATGACACCTACACCCGGAGGCGGAGTCACCTAGTGCAG”, the binding signal was 11000 fluorescence intensity (a.u.).
